{"source": "PubChem BioAssay (NCATS)", "key": {"[1]": {"assay": "AP1 Signaling Pathway (AID 357; active = well fitted curve in either direction with a large enough effect, not every such curve was filed as active; inconclusive = small, poorly fitted or top-dose-only effect, or another doubt; note: top concentration of the series differs between compounds; % is set by controls: 0 for no effect and ±100 for the full control effect)", "settings": "ME-180 AP-1-bla reporter, EGF-induced, beta-lactamase ratio, 5 h; at 7.69 µM (top of the series) unless noted", "summary_of_the_method": "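Beta-lactamase reporter under AP-1 response element, ME-180 background. Stimulus: EC50 EGF. Compound exposure 5 h, 37 °C. Detection: CCF4, 2.5 h RT, 460/530 nm. Values: AC50 from titration.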"}, "[2]": {"assay": "NFAT Signaling Pathway (AID 444; active = well fitted curve in either direction with a large enough effect, not every such curve was filed as active; inconclusive = small, poorly fitted or top-dose-only effect, or another doubt;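 note: carbachol stimulus at about its EC50 of 1 µM final; % is set by controls: 0 for no effect and ±100 for the full control effect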)", "settings": "Jurkat NFAT-bla M1, carbachol, beta-lactamase ratio, 5 h; at 7.69 µM (top of the series) unless noted", "summary_of_the_method": "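Jurkat cells carrying an NFAT-driven β-lactamase reporter and co-transfected muscarinic M1 receptor were treated with compound plus carbachol (1 uM final, an EC50 level) for 5 h at 37 °C. CCF4 loading followed for 1 h at RT; 460/530 nm ratio gave %activity.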"}, "[3]": {"assay": "Confirmatory qHTS for small molecule stabilizers of the endoplasmic reticulum resident proteome: Secreted ER Calcium Modulated Protein (SERCaMP) assay (AID 1508628); note: nearly all actives have a fitted effect of over 40% in size; note: potency is the fitted concentration of half-maximal effect", "summary_of_the_method": "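GLuc-SERCaMP-expressing SH-SY5Y cells, pretreated 16 h with compound, are challenged with thapsigargin to empty ER calcium stores; after 4 h, coelenterazine is added directly to the medium and luminescence is imaged.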"}, "[4]": {"assay": "Cell Viability qHTS for small molecule stabilizers of the endoplasmic reticulum resident proteome (AID 1508629);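 note: compound exposure about 46 h in total before the viability read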; note: potency is the fitted concentration of half-maximal effect; for max response: % is set by controls: 0 for no effect and ±100 for the full control effect", "settings": "cell viability counter-screen, 100 nM thapsigargin for final 4 h"}, "[5]": {"assay": "Stat Signaling Pathway (AID 446; active = well fitted curve in either direction with a large enough effect, not every such curve was filed as active; inconclusive = small, poorly fitted or top-dose-only effect, or another doubt; note: top concentration of the series differs between compounds; % is set by controls: 0 for no effect and ±100 for the full control effect)", "settings": "ME-180 SIE beta-lactamase reporter, IL-6 stimulated, 5 h; at 7.69 µM (top of the series) unless noted", "summary_of_the_method": "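FRET read-out (405 nm excitation, 460/530 nm emission) of a beta-lactamase reporter under a STAT-inducible element in ME-180 cervical carcinoma cells. Cells with compound receive 40 pM IL-6 for 5 h. Values are normalised to AC90 stimulation and AC90 JAK-inhibitor controls.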"}, "[6]": {"assay": "Primary qHTS for small molecule stabilizers of the endoplasmic reticulum resident proteome: Secreted ER Calcium Modulated Protein (SERCaMP) assay (AID 1508630); note: potency is the fitted concentration of half-maximal effect", "settings": "SH-SY5Y GLuc-SERCaMP (Gaussia luciferase released on ER calcium loss) secretion, thapsigargin, luminescence; activity change, negative = inhibition: at 38.4 µM (top of the series) unless noted", "summary_of_the_method": "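The SH-SY5Y reporter protocol was run at 3 concentrations up to 38.3 uM (primary) or 11 concentrations (follow-up): 16 h compound, 100 nM thapsigargin for 4 h, then extracellular luciferase luminescence.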"}, "[7]": {"target": "3',5'-cyclic-AMP phosphodiesterase 4B (Homo sapiens) (UniProt Q07343)", "sequence (Q07343 whole entry, looked up)": "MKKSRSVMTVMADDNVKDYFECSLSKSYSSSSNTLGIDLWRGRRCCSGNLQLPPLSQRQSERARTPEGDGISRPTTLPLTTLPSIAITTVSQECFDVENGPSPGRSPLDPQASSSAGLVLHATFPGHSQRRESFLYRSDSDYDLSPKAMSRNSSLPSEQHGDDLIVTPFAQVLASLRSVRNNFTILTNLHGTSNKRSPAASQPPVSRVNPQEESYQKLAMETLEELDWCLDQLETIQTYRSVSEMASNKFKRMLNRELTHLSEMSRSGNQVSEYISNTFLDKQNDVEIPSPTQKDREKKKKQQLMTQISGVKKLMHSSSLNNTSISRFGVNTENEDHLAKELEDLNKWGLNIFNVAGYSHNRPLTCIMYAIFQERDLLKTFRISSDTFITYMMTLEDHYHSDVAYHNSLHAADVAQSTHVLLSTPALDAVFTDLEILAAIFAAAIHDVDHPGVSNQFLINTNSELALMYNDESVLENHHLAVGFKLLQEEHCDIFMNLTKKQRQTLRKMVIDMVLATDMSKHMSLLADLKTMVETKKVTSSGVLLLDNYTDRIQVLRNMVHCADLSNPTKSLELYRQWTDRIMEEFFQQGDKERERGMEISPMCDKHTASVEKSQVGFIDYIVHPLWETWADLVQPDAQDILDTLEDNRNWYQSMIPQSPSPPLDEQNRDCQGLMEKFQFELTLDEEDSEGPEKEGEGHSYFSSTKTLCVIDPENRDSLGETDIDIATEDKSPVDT", "assay": "qHTS Assay for Inhibitors of PDE-IV (AID 607; active = well fitted activation curve with a large enough effect in the main read-out, with a control signal flat, not every such curve was filed as active; inconclusive = small, poorly fitted or top-dose-only effect, or effect the other way, or a change in a side signal; note: potency is the fitted concentration of half-maximal effect; for activation (PDE inhibition): % of control where 0% means no effect)", "settings": "HEK293 ACTOne CNG channel cells, membrane potential fluorescence; activation (PDE inhibition): at 22.9 µM (top of the series)", "summary_of_the_method": "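Cell-based read-out of cAMP via a modified cyclic nucleotide-gated channel and membrane potential dye (535/590 nm) in HEK293 cells expressing PDE4 endogenously. Compounds tested up to 22.9 uM final; 100 uM RO 20-1724 reference.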"}, "[8]": {"assay": "qHTS Assay for Identification of Small Molecule Agonists for Hypoxia Response Element Signaling Pathway (AID 914; active = well fitted activation curve with a large enough effect in the signal ratio, with a control signal flat, not every such curve was filed as active; inconclusive = small, poorly fitted or top-dose-only effect, or effect the other way, or a change in a side signal; the % refers to the signal ratio; note: potency is the fitted concentration of half-maximal effect)", "settings": "ME-180 HRE-bla reporter, beta-lactamase ratio, CoCl2, 17 h; activation: stronger effect = higher value", "summary_of_the_method": "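Cells were plated overnight, pin-dosed with compound in a titration series, co-stimulated with EC50 CoCl2 and incubated 17 hours at 37 degrees Celsius. CCF4 substrate was then loaded, and AC50 values came from the 460nm/530nm ratio.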"}, "[9]": {"target": "Cytochrome P450 3A4 (Homo sapiens) (UniProt P08684)", "sequence (P08684 whole entry, looked up)": "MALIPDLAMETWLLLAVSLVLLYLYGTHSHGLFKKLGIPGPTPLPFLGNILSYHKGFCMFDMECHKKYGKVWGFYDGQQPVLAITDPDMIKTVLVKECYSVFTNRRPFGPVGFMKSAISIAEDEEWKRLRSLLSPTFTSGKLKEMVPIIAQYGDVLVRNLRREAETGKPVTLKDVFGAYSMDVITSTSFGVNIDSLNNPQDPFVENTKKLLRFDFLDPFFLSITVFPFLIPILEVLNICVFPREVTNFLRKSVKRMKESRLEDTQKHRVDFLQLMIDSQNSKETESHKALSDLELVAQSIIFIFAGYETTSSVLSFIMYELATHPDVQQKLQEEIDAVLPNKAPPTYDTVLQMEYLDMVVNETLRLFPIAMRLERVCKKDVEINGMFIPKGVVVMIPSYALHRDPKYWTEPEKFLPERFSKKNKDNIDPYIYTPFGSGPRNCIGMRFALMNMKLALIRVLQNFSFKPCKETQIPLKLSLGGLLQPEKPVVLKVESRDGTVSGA", "assay": "qHTS Assay for Activators of Cytochrome P450 3A4 (AID 885); note: nearly all actives have a fitted effect of over 65% in size", "summary_of_the_method": "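Luminescent readout of luciferin formed from 25 uM Luciferin-PPXE (KM level) by 20 nM CYP3A4 in 200 mM KPO4, with 60 min NADPH-driven reaction at room temperature after 10 min compound exposure. Ketoconazole (57 uM) defined 100% inhibition.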"}, "[10]": {"target": "Dual specificity protein kinase CLK4 (Homo sapiens) (UniProt Q9HAZ1)", "sequence (Q9HAZ1 whole entry, looked up)": "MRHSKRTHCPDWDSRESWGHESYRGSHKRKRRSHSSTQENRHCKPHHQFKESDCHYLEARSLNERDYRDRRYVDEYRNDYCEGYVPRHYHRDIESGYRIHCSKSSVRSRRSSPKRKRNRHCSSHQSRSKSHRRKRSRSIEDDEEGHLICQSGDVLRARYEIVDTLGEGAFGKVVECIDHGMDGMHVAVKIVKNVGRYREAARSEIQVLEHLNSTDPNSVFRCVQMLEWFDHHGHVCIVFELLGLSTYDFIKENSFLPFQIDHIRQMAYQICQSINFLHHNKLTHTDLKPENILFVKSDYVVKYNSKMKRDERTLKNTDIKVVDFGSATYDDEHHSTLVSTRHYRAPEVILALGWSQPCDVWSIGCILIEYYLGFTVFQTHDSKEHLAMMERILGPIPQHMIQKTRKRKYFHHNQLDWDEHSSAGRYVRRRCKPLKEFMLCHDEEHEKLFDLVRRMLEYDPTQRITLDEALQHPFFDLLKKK", "assay": "qHTS Assay for Inhibitors of CDC-like Kinase 4 (ADP-Glo Assay) (AID 1771); note: % is set by controls: 0 for no effect and ±100 for the full control effect; nearly all actives have a fitted effect of over 70% in size", "summary_of_the_method": "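In this ADP-Glo format, 1 uM ATP and 100 uM RS peptide served as substrates for 25 nM Clk4 in Mg2+/EGTA/DTT/Triton buffer; reactions ran 1 hr at room temperature before luminescent ADP quantification.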"}, "[11]": {"target": "Cytochrome P450 2C9 (Homo sapiens) (UniProt P11712)", "sequence (P11712 whole entry, looked up)": "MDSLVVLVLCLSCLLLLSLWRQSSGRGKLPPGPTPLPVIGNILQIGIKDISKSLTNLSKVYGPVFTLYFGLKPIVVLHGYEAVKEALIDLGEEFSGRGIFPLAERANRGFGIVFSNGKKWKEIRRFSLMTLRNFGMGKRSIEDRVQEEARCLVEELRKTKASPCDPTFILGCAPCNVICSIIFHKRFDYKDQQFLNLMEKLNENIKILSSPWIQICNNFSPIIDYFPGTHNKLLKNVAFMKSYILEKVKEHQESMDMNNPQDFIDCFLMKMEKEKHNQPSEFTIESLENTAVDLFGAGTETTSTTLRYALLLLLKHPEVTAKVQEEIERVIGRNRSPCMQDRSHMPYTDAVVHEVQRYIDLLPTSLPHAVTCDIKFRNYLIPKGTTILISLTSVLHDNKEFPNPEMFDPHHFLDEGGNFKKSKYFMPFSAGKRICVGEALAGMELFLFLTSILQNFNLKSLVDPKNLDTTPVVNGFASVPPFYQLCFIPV", "assay": "qHTS Assay for Inhibitors and Substrates of Cytochrome P450 2C9 (AID 883); note: % is set by controls: 0 for no effect and ±100 for the full control effect; nearly all actives have a fitted effect of over 60% in size", "summary_of_the_method": "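A luminogenic readout tracked human CYP2C9 (10nM) converting deoxyluciferin (100uM, at KM) in 25mM KPO4 during 60 min at 37C with regenerated NADPH. Values normalized to 57uM sulphaphenazole as complete inhibition.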"}}, "note": "Inconclusive means that the source gave no clear call. Such entries were picked first, then a sample of the others. For part of these data: No potency is given beside an inconclusive call; the fits are too rough. Calls of active or inactive are those of the source. Unless noted, calls come from the whole dose curve; as a rule, active = well fitted curve in the direction sought with a large enough effect; inconclusive = small, poorly fitted or top-dose-only effect, or another doubt; inactive = no such curve, though single readings can be large; an effect the other way counts as inactive or inconclusive. Tags give direction and shape of the fitted curve or compound fluorescence and quenching.", "data": [{"smiles": "COc1ccccc1-c1cncnc1NCCN1CCOCC1", "values": [{"measurement": "activity change, negative = inhibition", "setting": "[1]", "value": "inconclusive: 35.4% [activator]"}, {"measurement": "activity change, negative = inhibition", "setting": "[2]", "value": "inconclusive: -64.7% [inhibitor]"}, {"measurement": "Potency", "setting": "[3]", "value": "inconclusive [inhibitor, single point]"}, {"measurement": "Potency", "setting": "[4]", "value": "inconclusive [cytotoxic, partial curve]"}]}, {"smiles": "Cc1nc2cnc(N3CCNCC3)nc2n(CCc2ccccc2)c1=O", "values": [{"measurement": "activity, negative = inhibition", "setting": "[5]", "value": "inactive: -13.8%"}, {"measurement": "Potency", "setting": "[3]", "value": "active: 31.6 µM"}, {"measurement": "Potency", "setting": "[4]", "value": "inconclusive [rising, full curve]"}, {"measurement": "Potency", "setting": "[6]", "value": "inconclusive [inhibitor, partial curve, poor fit]"}]}, {"smiles": "O=C(Nc1cccc(F)c1)N1CCC2(CC1)CCN(S(=O)(=O)c1ccccc1)CC2", "values": [{"measurement": "Potency", "setting": "[7]", "value": "inactive"}, {"measurement": "Potency", "setting": "[8]", "value": "inconclusive [inhibitor, single point]"}, {"measurement": "Potency", "setting": "[3]", "value": "inactive"}, {"measurement": "max response", "setting": "[4]", "value": "inactive: 3.59%"}, {"measurement": "Potency", "setting": "[6]", "value": "inconclusive [inhibitor, partial curve, poor fit]"}]}, {"smiles": "Cc1nc2cnc(N3CCNCC3)nc2n(Cc2cccs2)c1=O", "values": [{"measurement": "Potency", "setting": "[9]", "value": "inactive"}, {"measurement": "Potency", "setting": "[10]", "value": "inactive"}, {"measurement": "Potency", "setting": "[3]", "value": "active: 25.1 µM"}, {"measurement": "max response", "setting": "[4]", "value": "inactive: 3.08%"}, {"measurement": "Potency", "setting": "[6]", "value": "inconclusive [inhibitor, partial curve, poor fit]"}]}, {"smiles": "COc1ccc(CNc2ncnc3ccc(-c4ccccc4CN(C)C)cc23)c(OC)c1", "values": [{"measurement": "activity change, negative = inhibition", "setting": "[2]", "value": "inconclusive: -44% [inhibitor]"}, {"measurement": "Potency", "setting": "[7]", "value": "inconclusive [rising, partial curve]"}, {"measurement": "activity change, negative = inhibition", "setting": "[11]", "value": "inactive: 2.97% [at 2.29 µM]"}, {"measurement": "Potency", "setting": "[3]", "value": "active: 7.94 µM"}, {"measurement": "max response", "setting": "[4]", "value": "inactive: 6.24%"}, {"measurement": "Potency", "setting": "[6]", "value": "inconclusive [inhibitor, partial curve, poor fit]"}]}]}
